In the RNAGym collection of RNA variant scans (doi:10.1073/pnas.2313332121):
Variants at the background level are over-represented here.

B1: TPR 5TU (parent)
chain: GGAUCUUCUCGAUCUAACAAAAAAGACAAAUCUGCCACAAAGCUUGAGAGCAUCUUCGGAUGCAGAGGCGGCAGCCUUCGGUGGCGCGAUAGCGCCAACGUUCUCAACUAUGACACGCAAAACGCGUGCUCCGUUGAAUGGAGUUUAUCAUG

Variants of: B1
Assay: polymerase ribozyme fitness, log enrichment relative to wild type (log ratio); higher = more active; in vitro selection for triplet polymerase activity
Procedure, shortened: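 Mutant libraries for each subunit of a heterodimeric triplet polymerase ribozyme were made by PCR and then transcribed. Each library underwent one round of in vitro selection in triplicate: annealing with a biotinylated primer, the partner subunit and triplets, frozen incubation at −7 °C, gel excision of extended constructs, streptavidin-bead capture and RT-PCR. Input and output libraries were Illumina-sequenced, and only genotypes with ≥10 input reads and ≥1 read per output were kept. Fitness is the logarithm, base 2, of genotype enrichment over wild-type enrichment, computed from inverse-variance-weighted replicate averages.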

Variant	polymerase ribozyme fitness (log ratio)
GGAUCUUCUCGGUCUAACAAAAAAGACAAAUCUGCCAUAAAGCUUGAGAGCAUCUUCGGAUGCAGAGGCGGCAGCCUUCGGUGGCGCGAUAGCGCCAAUGUUCUCAACUAUGACACGCAAAACGCGUGCUCCGUUGAAUGGAGUUUAUCAUG	-0.24
GGAUCUUCUCGGUCUAACAAAAAAGACAAAUCUGCCACAAAGCUUGAGAGGAUCUUCGGAUGCAGAGCCGGCAGCCUUCGGUGGGGCGAUAGCGCCAACGUUCUCAACUAUGACACGCAAAACGCGUGCUCCGUUGAAUGGAGUUUAUCCUG	≤ -4.2
GGAUCUUCUCGGUCUAACAAAAAAGACAAAUCUGCCACAAAGCUUGAGAGCAUAAUCGGAUGCAGAGGCGGCAGCCUUGGGUGGUGCGAUAGCGCCAACGUUCUCAACUAUGAGACUCAAAACGCGUGCUCCGUUGAAUGGAGUUUAUCAUG	≤ -4.2
GGAUCUUCUCGGUCUAACAAAAAAGACAAAUCUGCCACAAAGCUUGAGAGCAUGUUCGGAUGCAGAGGCGGCAGCCUUCGGUGGCGCGAUAGCGCCAACGUUCUCAACUAUGACAUGCAAAACGCGUGCUCCGUUGAAUGGAGUUUAUCAUG	-0.574
GGAUCUUCUCGGUCUAACAAAAAAGACAAAUCUGCCACAAAGCUUGAGAGCAUUUUCCGAUGCAGAGGCGGCAGCCUUUGGUGGCGCGAUAGCGCCAAUGUUCUCAACUAUGACACGCAAAACGAGUGCUCCGUUGAAUGGAGUUUAUCAUG	≤ -4.2
GGAUCUUCUCGGUCUAACAAAAAAGACAAAUCUGCCACAAAGCUUGAGAGCAUCUUCGGAUGUAGAGGCGGCAGCCUUCGGUGGCGCGAUAGCGCCAACGUUCUCAACUAUGACACGCAAAACGCGUGCUCCGUUGAAUGGAGUUUAUCAUG	-0.0387
GGAUCUUCUCGGUCUAACAAAAAAGACAAAUCUGCCACAAAGCUUGAGAGCAUCUUCGGAUGCAGAGGUGGCAUCCUGCGGUGACGCGAUAGCGCCAACGUUCUCAACUAUGACACGCAAAACGCGUGCUCCGUUGACUGGAUUUUAUCAUG	≤ -4.2
GGAUCUUCUCGGUCUAACAAAAAAGACAAAUCUGCCACAAAGCUUGAGAGCAUCUUCGGAUGCAGAGGCGGCAGUCUUCGGUGGCGCGAUAGUGCCAACGUUCUCAACUAUGACACGCAAAACGCGUGCUCCGUUGAAUGGAGCUUAUCAUG	-0.389
GGAUCUUCUCGGUCUAACAAAAAAGACAAAUCUGCCACAAAGCUUGAGAGCAUCUUCGGAUGCAGAGGCGGCAGCGUUCAGUGGCGCGCUAGCGACAACGUUCUCAACUAUGACACGCAAAACGCGUGCUCCGUUGAAUGGAGUUUAUCAUG	≤ -4.2
GGAUCUUCUCGGUCUAACAAAAAAGACAAAUCUGCCACAAAGCUUGAGAGCAUCUUCGGAUGCAGAGGCGGCAGCCUUUGGUGGCCCGAUAGCGCCAACGUUCUCAACUAUGACACGCAGAACGUGUGCUCCGUUGAAUGGAGUUUAUCAUG	≤ -4.2
GGAUCUUCUCGGUCUAACAAAAAAGACAAAUCUGCCACAAAGCUUGAGAGCAUCUUCGGAUGCAGAGGCGGCAGCCUUCGGUGGAGCGGUAGCGCCGCCGUUCUCAACUAUGACACGCAAAACGCGUGCUCCGUUGAAAGGAGUUUAUCAUG	≤ -4.2
GGAUCUUCUCGGUCUAACAAAAAAGACAAAUCUGCCACAAAGCUUGAGAGCAUCUUCGGAUGCAGAGGCGGCAGCCUUCGGUGGCGAGGUAGCGCCAACGUUCUCAACUAUGACACGCUAAAAGCUUGCUCCGCUGAAUGUAGUUUAUCAGG	≤ -4.2
GGAUCUUCUCGGUCUAACAAAAAAGACAAAUCUGCCACAAAGCUUGAGAGCAUCUUCGGAUGCAGAGGCGGCAGCCUUCGGUGGCGUGAUAGCGCCAACGUUCUCAACUAUGACACGCAAAACGCGUGCUCCGUUGAAUGGAGUUUAUCAUG	-0.54
GGAUCUUCUCGGUCUAACAAAAAAGACAAAUCUGCCACAAAGCUUGAGAGCAUCUUCGGAUGCAGAGGCGGCAGCCUUCGGUGGCGUAAUAGCGCCAACGUUCUGAACUAUGACGCGCAAAACGCGUGCUCCGUUGAAUGGAGUUUAUCAUG	≤ -4.2
GGAUCUUCUCGGUCUAACAAAAAAGACAAAUCUGCCACAAAGCUUGAGAGCAUCUUCGGAUGCAGAGGCGGCAGCCUUCGGUGGCGCGAUAGCGCCAACGUUCUAAACUAUGACACGCAAAACUCGUGCUCCGUUGAAUGGAGUUUAGUAUG	≤ -4.2
GGAUCUUCUCGGUCUAACAAAAAAAUCCAAUCUGCCACAAAGCUUGAGAGCAUCUACGGAUGCAGAGGCGGCAGCCUUCGGUGGCGCGAUAGCGCCAACGUUCUCAACUAUGACACGCAAAACGCGUGCUCCGUUGAAUGGAGUUUAUCAUG	≤ -4.2
GGAUCUUCUCGGUCUAACAAAAAACACAAAUCUGCCACAAAGCUUGAGAGCAUCUUCGGAUGCAGAGGCGGCAGUCUUCGGUGGCGCGAGAGCGCCAACGUGCUCAACUAUGACACGGAAAACGCGUGCUGCGUUGAAUGGAGUUUAUCAUG	≤ -4.2
GGAUCUUCUCGGUCUAACAAAAAACACAAAUCUGCCACAAAGCUUGAGAGCAUCUUCGGAUGCAGAGCCGGCAGCCUUCGGUGUCGCGAUAGCGCCAACGUUCUCAACUAUGACACGCAAAACGCGUGCUCCGUGGAAUGGAGUUUAUCGUG	≤ -4.2
GGAUCUUCUCGGUCUAACAAAAAAGACAAAUCUGCCACAAAACUUGAGAGCAUCUUCGGAUGCAGAGGCGGCAGCCUUCGGUGGCGCGAUAGCACCAACGUUCUCAACUAUGACACGCAAAAUGCGUGCUCCGUUGAAUGGAGUUUAUCAUG	≤ -4.2
